Source: the supplement of paper PMC3334620
Whole data set: some 33,000 sequences, median “E-score (-0.5 to 0.5)” near -0.035, cut for the highest 2% near 0.34. Some of the results follow.

molecular target: T1, Mot3 (UniProt P54785); test: PBM E-score (8-mer binding enrichment) (E-score (-0.5 to 0.5)); higher = stronger / more preferred TF binding; most listed sequences are background and not binding sites; conditions: protein concentration: 200 nM; construct: GST-full length
T1 sequence: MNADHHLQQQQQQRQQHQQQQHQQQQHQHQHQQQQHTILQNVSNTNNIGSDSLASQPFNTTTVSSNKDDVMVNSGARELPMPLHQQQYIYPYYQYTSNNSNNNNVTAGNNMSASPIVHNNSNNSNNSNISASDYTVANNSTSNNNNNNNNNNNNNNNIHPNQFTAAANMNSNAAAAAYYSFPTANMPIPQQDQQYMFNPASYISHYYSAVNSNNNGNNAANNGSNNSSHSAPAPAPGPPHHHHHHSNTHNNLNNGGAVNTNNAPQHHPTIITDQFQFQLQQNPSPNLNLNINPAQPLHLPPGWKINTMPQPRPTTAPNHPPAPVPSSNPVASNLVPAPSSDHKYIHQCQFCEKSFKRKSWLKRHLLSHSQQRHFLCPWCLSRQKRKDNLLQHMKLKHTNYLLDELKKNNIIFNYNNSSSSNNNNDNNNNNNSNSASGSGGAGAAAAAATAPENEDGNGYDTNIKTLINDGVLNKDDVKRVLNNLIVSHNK
Outline: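 GST-tagged yeast TFs (full-length or DNA-binding domain) were made by PURExpress in vitro transcription/translation and applied at about 100-200 nM to universal all-10-mer Agilent arrays. The arrays were made double-stranded by primer extension, on fresh or once-stripped slides. Bound protein was detected with fluorescent anti-GST, and scans were normalised with masliner. Each ungapped eight-base word, pooled with its reverse complement, received an E-score (modified Wilcoxon-Mann-Whitney statistic) from the Universal PBM Analysis Suite.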

Row | Sequence | PBM E-score
1 | GCGTTAAC | 0.265
2 | CTTTATGC | 0.0187
3 | ACTATCTG | -0.237
4 | AAGTGCAT | 0.204
5 | CCCTCCAA | -0.308
6 | ACCAGAAA | -0.0509
7 | AGGCTCAT | 0.22
8 | AAGCCCGA | -0.157
9 | AATAAGAC | 0.0558
10 | CGTCTAGC | -0.0211
11 | CCCGCCTA | 0.0235
12 | GGATTAAC | 0.112
13 | ACACAATC | 0.245
14 | ATCGACCA | -0.099
15 | CGAGAATC | -0.172
16 | CAGACGGG | -0.277
17 | AGGATTGC | -0.0652
18 | AAATCCCG | -0.246
19 | TGATTGCA | 0.115
20 | ACCCGCAC | -0.259
21 | CAGGGATC | -0.258
22 | GACAAATA | 0.123
23 | AGGACTCG | -0.159
24 | CCCCACGC | -0.26
25 | ATGAGCCA | -0.168

Row | Sequence | PBM E-score
26 | CGCCGCTC | -0.205
27 | ATGATATC | -0.149
28 | ATCGGCTC | -0.0503
29 | ACTTCGAG | 0.0127
30 | GGTGCCAA | -0.14
31 | ACACTTGG | -0.0239
32 | AGAATTCC | -0.0646
33 | GACCTTGA | -0.0632
34 | AGACGTTA | 0.107
35 | AGGTAGGG | -0.0491
36 | AAACATCA | 0.294
37 | ACGTTGAA | 0.286
38 | ATGCAACC | -0.00161
39 | GCTACAAA | -4e-05
40 | TGTCAGAA | 0.155
41 | AAGTTCGG | -0.0501
42 | AAGAGATG | 0.143
43 | CTGGACCA | -0.125
44 | CACTATTC | 0.00889
45 | CATGCACG | 0.054
46 | AAGGATGA | 0.0473
47 | GCACATAC | -0.0686
48 | ACGTCTCA | 0.0786
49 | ACGGTTTC | -0.065
50 | CCGCAAAG | -0.212

Row | Sequence | PBM E-score
51 | GCCCGATA | -0.181
52 | CACGTGAG | 0.0779
53 | AGGAGCAA | -0.19
54 | AGTATGCC | 0.013
55 | CATGGATC | -0.164
56 | CTAGCTCA | -0.185
57 | GATAGTTA | 0.0132
58 | AATTCGAA | -0.00868
59 | CTGGTCGA | -0.114
60 | CCGTCACG | -0.237
61 | ACGTCAGC | 0.0495
62 | AGCCAATC | -0.213
63 | GCTATGAC | -0.229
64 | AGGGCCAA | -0.294
65 | GAGTGGAA | -0.205
66 | AATGCGAT | -0.0483
67 | ACAGACGA | 0.0084
68 | AATCCAGG | 0.0903
69 | CGTAGTAA | 0.18
70 | AAGATATG | 0.127
71 | GAAGGCAA | 0.489
72 | CCAAAGGC | 0.145
73 | ACCTAGCA | 0.0477
74 | TCCGAGCA | 0.104
75 | TGGCCCAA | -0.311

Row | Sequence | PBM E-score
76 | CCACGGCG | -0.165
77 | CTGTCGAC | 0.123
78 | GTTAATAA | 0.151
79 | GCAAGACA | 0.0193
80 | ATTCTAGA | -0.0354
81 | ACGTCGTA | 0.017
82 | CCGGTGGA | -0.358
83 | ACGAGTGG | -0.115
84 | AGTGATTG | -0.11
85 | ACAGTCGC | -0.068
86 | ACGACACT | 0.0691
87 | AGCCCATC | -0.217
88 | CCGACCAA | 0.0242
89 | GGGCAGCA | -0.128
90 | AGGCTCGA | 0.101
91 | CCACTCTC | -0.237
92 | ACGCGCTA | 0.155
93 | ATCTGCGC | -0.0863
94 | GCATGCAA | 0.116
95 | TAAAACCA | 0.0571
96 | CTTCAGTA | 0.0374
97 | CTGCAGCA | -0.0262
98 | CGCCGCCC | -0.209
99 | CAGGCAAG | 0.491
100 | AAACACTG | 0.196

Row | Sequence | PBM E-score
101 | AACGGTCT | -0.13
102 | GGACGCCC | -0.128
103 | CAGGTCAA | -0.0137
104 | TGGTGAAA | 0.0172
105 | CGATCATA | -0.0872
106 | GAGGAAAA | 0.0527
107 | AAGGTAGG | 0.0935
108 | CCAGGTCG | -0.0402
109 | ATAGTGTG | -0.0895
110 | GAACCAGC | -0.11
111 | GCACCTGC | 0.125
112 | CTAACTTA | 0.105
113 | ACCTAAAT | 0.084
114 | CACGGATC | 0.0149
115 | GGGTCTAC | -0.19
116 | CTGTTAGA | -0.081
117 | GGATAGCA | -0.0171
118 | CTTCCTAC | -0.0906
119 | GGTCAGGA | -0.0849
120 | AAAGCCAT | 0.083
121 | CGCATTCC | -0.29
122 | ATCTCAGC | -0.189
123 | TACCGACA | 0.0238
124 | AAATGGTC | -0.223
125 | CGTGCCCA | 0.355

Row | Sequence | PBM E-score
126 | TACGGAAA | 0.0699
127 | AACATCAG | 0.232
128 | CACGGCAA | 0.108
129 | CACAGGGC | 0.075
130 | ACTAAGCG | -0.0457
131 | ATCGCAGA | -0.0933
132 | GACTACAC | 0.295
133 | ATCGTTTG | -0.0574
134 | AATGATAG | 0.0197
135 | GCCAAAGC | -0.211
136 | ACCCTAAC | -0.0368
137 | GTGAGTGA | -0.195
138 | CAGATTCC | -0.124
139 | CCGTTAGC | -0.267
140 | CGCTAATC | -0.107
141 | AAGCAACT | -0.0233
142 | CTATCGCC | -0.129
143 | AACCTCCC | -0.0647
144 | CGGTGATA | -0.108
145 | GGAATTTA | 0.00634
146 | AAAAAACG | 0.0973
147 | GTGGATCA | -0.161
148 | AGGCGTTG | 0.185
149 | ACACCTCC | -0.084
150 | ACCCTCGC | -0.253

Row | Sequence | PBM E-score
151 | CATGAGAG | -0.0464
152 | ATACAATA | 0.119
153 | GCGGATGA | -0.199
154 | CTGATGAC | -0.0806
155 | ACCAATCT | -0.145
156 | GCCGGACC | -0.0435
157 | CTTGTATC | 0.176
158 | CACCTCAC | 0.00629
159 | ATCAGAAG | -0.0998
160 | AGGCAGCG | 0.175
161 | CAAGGAAG | -0.00272
162 | GAGATACC | -0.0433
163 | GTAGGGCA | 0.117
164 | ATCCCTTG | -0.0314
165 | TGAGTGAA | -0.143
166 | GATGTCCA | -0.112
167 | AAATCGTG | 0.263
168 | CTGACCTC | -0.3
169 | AGTAGTTG | 0.0131
170 | TACCGCGA | -0.0474
171 | GTGAAAGA | 0.0325
172 | AGGGTCTA | -0.153
